# Read counts are not given, so values of variants with three or more changes are uncertain.
# B1: CPEB3 Ribozyme (parent)
# chain: UAACAGGGGGCCACAGCAGAAGCGUUCACGUCGCAGCCCCUGUCAGAUUCUGGUGAAUCUGCGAAUUCUGCUGUAUAUCUC
# Variants of: B1
# Assay: self-cleavage, relative activity (ratio to wild type); higher = more cleavage; in vitro, sequencing
# Summary of the method: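 Barcoded CPEB3 ribozyme mutants, produced by rounds of error-prone PCR, self-cleaved while being transcribed with T7 RNA polymerase for 5 hours at 37°C and during a subsequent 15 min DNase I step before EDTA was added. Sequencing of template-switched cDNA on Illumina gave cleaved and total reads, and DNA sequencing assigned barcodes to variants. Each variant's relative activity is its cleaved/total read fraction divided by the unmutated ribozyme's fraction, averaged across three batches. A variant needed a minimum of 5 reads.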
row,Variant,self-cleavage
1,U43C U49C U60C U78C,0.15
2,U43C U49C U66A,0.48
3,U43C U49C U66C U74A,0.1
4,U43C U49C U67C,0.13
5,U43C U49C U69C U80A,0.36
6,U43C U49C U80A,0.4
7,U43C U49G A57G C71A U80C,0.1
8,U43C U49G A64U U76A,0.09
9,U43C U49G U60A U69A,0.12
10,U43C U51A A56G U72A,0.19
11,U43C U51A A56G U72C,0.23
12,U43C U51A A64G U76G,0.45
13,U43C U51A A77G,0.49
14,U43C U51A U66A U67C U69G,0.14
15,U43C U51C A56C A57G,0.07
16,U43C U51C A56U,0.38
17,U43C U51C A57G,0.34
18,U43C U51C A57U,0.15
19,U43C U51C C59U A64G U72A,0.16
20,U43C U51C C81U,0.67
21,U43C U51C G63U,0.98
22,U43C U51C U54C,0.57
23,U43C U51C U54C U58C,0.14
24,U43C U51C U58A,0.17

row,Variant,self-cleavage
1,U43C U51C U58C,0.18
2,U43C U51C U60C A64G U78C U80A,0.09
3,U43C U51C U66C,0.45
4,U43C U51C U72A,0.27
5,U43C U51C U80A,1.06
6,U43C U54A A56G A64G,0.16
7,U43C U54A A57G U69C,0.17
8,U43C U54A A64G,0.54
9,U43C U54A A64U U67A U72C,0.1
10,U43C U54A A65G,0.33
11,U43C U54A A65G U72A,0.2
12,U43C U54C A57G A64G G70C,0.17
13,U43C U54C A64U,0.62
14,U43C U54C A75G,0.25
15,U43C U54C C59A A64G,0.08
16,U43C U54C U66C A77G,0.12
17,U43C U54C U80C,0.23
18,U43C U58A U66C,0.11
19,U43C U58A U72C,0.16
20,U43C U58A U76C,0.17
21,U43C U58C A64G,0.09
22,U43C U58C U60A G73U U78C,0.09
23,U43C U58C U78C,0.26
24,U43C U58G U60C,0.1

row,Variant,self-cleavage
1,U43C U60A C62U U78A,0.03
2,U43C U60A U67A,0.27
3,U43C U60C A64G U67C U69C U80C,0.21
4,U43C U60C A65U,0.15
5,U43C U60C A77G,0.3
6,U43C U60C C79A,0.09
7,U43C U60C U66C U72A,0.11
8,U43C U60C U67A,0.09
9,U43C U60G U76A,0.1
10,U43C U66A U67C,0.14
11,U43C U66C U72G,0.15
12,U43C U66C U76C,0.63
13,U43C U66C U80C,0.21
14,U43C U67C A77G,0.4
15,U43C U67C C71G,0.14
16,U43C U67C U72C,0.13
17,U43C U67C U72G,0.13
18,U43C U69A A77G,0.33
19,U43C U69A U72C,0.19
20,U43C U69A U76C,0.36
21,U43C U69A U80C,0.15
22,U43C U69C U72C,0.22
23,U43C U69G U76C,0.3
24,U43C U72A A77U,0.67

row,Variant,self-cleavage
1,U43C U72C A77G,0.69
2,U43C U72G G73C,0.99
3,U43C U76A A77C,0.37
4,U43C U76C U78C,0.58
5,U43G A47G C71U U78C,0.06
6,U43G A47G U48C A57U U72A,0.07
7,U43G A47G U74A U78C,0.47
8,U43G A56G U69A,0.11
9,U43G A56G U78C,0.37
10,U43G A57G A64U,0.15
11,U43G A57G C68U A75G,0.06
12,U43G A57G U72C U78C,0.15
13,U43G C59U C81A,0.16
14,U43G G46A U60C,0.16
15,U43G G63A A64C,0.24
16,U43G G63A U66C,0.27
17,U43G U48C U49A A64G,0.12
18,U43G U49C U66C,0.08
19,U43G U51A U80A,0.17
20,U43G U51C U69C,0.16
21,U43G U51C U80C,0.63
22,U43G U54C G63A,0.14
23,U43G U58C U60A,0.36
24,U43G U60A C71A U80C,0.03

row,Variant,self-cleavage
1,U43G U60C U72A,0.48
2,U43G U66C U78C,0.13
3,U43G U67C U69C,0.04
4,U43G U76C U80C,0.17
5,C44A A45G U54C C62G,0.15
6,C44A A45G U74C U78C,0.34
7,C44A A47C U49C,0.12
8,C44A A56G U78C,0.27
9,C44A A56U U72A,0.14
10,C44A A64G U72A G73C A77U,0.61
11,C44A A64U U78A U80C,0.26
12,C44A G63A U78A,0.32
13,C44A U48C U67C U74C,0.17
14,C44A U58C U69A U74C,0.19
15,C44A U60G U78C,0.14
16,C44G A45U U51A G55A G70A,0.19
17,C44G A47G U51C,0.22
18,C44G U48C A64G U72C,0.05
19,C44G U51C G55A,0.19
20,C44G U51C U66C,0.2
21,C44G U54C U72C U76G,0.3
22,C44G U60A U78C,0.63
23,C44U A45G A56G C71U,0.07
24,C44U A45G U49G G55A,0.1

row,Variant,self-cleavage
1,C44U A47G U49A,0.12
2,C44U A56U C62A,0.42
3,C44U C68U U72C,0.46
4,C44U U48C A65C,0.07
5,C44U U49A A56G U69A,0.14
6,C44U U49C A56U,0.31
7,C44U U51C A64C U66A U72C,0.18
8,C44U U51C A65G U67C,0.13
9,C44U U54C U72C,0.39
10,C44U U58C U60C,0.7
11,A45C A56G A65U U80C,0.03
12,A45C A56G A75U,0.21
13,A45C A56U A75G,0.07
14,A45C A56U U60C U69C,0.22
15,A45C A57G C62A A64G A75G,0.17
16,A45C A57G C62A A64G U69A A75G,0.16
17,A45C A57G C79U,0.38
18,A45C A64G U69A,0.13
19,A45C A64G U72C U76C,0.39
20,A45C A64G U80A,0.29
21,A45C A65G U66C U69A U80C,0.09
22,A45C G52A U67A,0.13
23,A45C G53C A64G A65G,0.06
24,A45C G53C A64U,0.19

row,Variant,self-cleavage
1,A45C U48A C62U,0.04
2,A45C U48A C68G U72C,0.12
3,A45C U48A G70A U72C,0.18
4,A45C U48C U49A U78C,0.06
5,A45C U48C U67C U78C,0.12
6,A45C U48C U74C A75G,0.12
7,A45C U49A U72C,0.31
8,A45C U51A U74C,0.44
9,A45C U51C A56G U78A,0.07
10,A45C U51C A77U C81U,0.3
11,A45C U51C G52U U54C A64G,0.1
12,A45C U51C G63A,0.24
13,A45C U51C U60C,0.21
14,A45C U51C U67A U74C,0.43
15,A45C U54A A65G,0.16
16,A45C U54G A56G A57G G61C U80C,0.05
17,A45C U58C A64U U76C,0.22
18,A45C U60A A64G U72C,0.23
19,A45C U60C A64U C79U,0.05
20,A45C U66C U78A,0.16
21,A45C U67C C81A,0.16
22,A45G A47G A56G,0.22
23,A45G A47G A56G G61A,0.36

# From the RNAGym collection of RNA variant scans (doi:10.1093/nar/gkz1192)
